Assay results as given in patent US9556117B2, “Indole carboxamide derivatives as P2X7 receptor antagonists” (ACTELION PHARMACEUTICALS LTD, priority 2012, dated 2017).
pIC50: −log10 of the molar value.

Target: human recombinant P2X7 receptor (Homo sapiens (Human), UniProt Q99572)
Assay: YO-PRO1 assay, P2X7 receptor antagonistic activity
Settings: HEK-293 cells expressing human recombinant P2X7 receptor; YO-PRO-1 fluorescence; ATP 250 μM for 90 minutes

UniProt Q99572, sequence (Q99572 whole entry): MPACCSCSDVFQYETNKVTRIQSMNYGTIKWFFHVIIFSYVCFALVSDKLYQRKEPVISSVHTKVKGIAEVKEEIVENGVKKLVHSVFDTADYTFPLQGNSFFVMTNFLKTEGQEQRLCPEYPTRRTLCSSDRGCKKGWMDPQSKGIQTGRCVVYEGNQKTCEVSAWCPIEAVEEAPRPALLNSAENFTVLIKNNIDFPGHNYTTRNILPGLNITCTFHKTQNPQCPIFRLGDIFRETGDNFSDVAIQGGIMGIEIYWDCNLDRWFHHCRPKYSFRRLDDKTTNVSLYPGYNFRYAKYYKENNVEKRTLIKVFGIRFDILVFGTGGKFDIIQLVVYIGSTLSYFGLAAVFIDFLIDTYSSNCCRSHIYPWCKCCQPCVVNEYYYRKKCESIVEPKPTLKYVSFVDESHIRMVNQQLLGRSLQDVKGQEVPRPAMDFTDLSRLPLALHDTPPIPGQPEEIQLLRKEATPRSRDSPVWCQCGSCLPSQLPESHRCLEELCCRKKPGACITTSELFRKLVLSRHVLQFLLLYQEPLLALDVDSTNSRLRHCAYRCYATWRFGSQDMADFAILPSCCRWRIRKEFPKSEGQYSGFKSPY

Question: `Nc1cc(C(=O)NCC2(O)CCCCC2)c(Cl)c2cc[nH]c12` [Example 32, 7-Amino-4-chloro-1H-indole-5-carboxylic acid (1-hydroxy-cyclohexylmethyl)-amide] was tested. Which pIC50 did it give?
Answer: 7.96

Question: `CS(=O)(=O)NC1(CNC(=O)c2ccc3[nH]ccc3c2Cl)CCCCC1` [Example 47, 4-Chloro-1H-indole-5-carboxylic acid (1-methanesulfonylamino-cyclohexylmethyl)-amide] was tested. Which pIC50 did it give?
Answer: 7.68

Question: `O=Cc1c[nH]c2ccc(C(=O)NCC3(O)CCCCC3)c(Cl)c12` [Example 9, 4-Chloro-3-formyl-1H-indole-5-carboxylic acid (1-hydroxy-cyclohexylmethyl)-amide] was tested. Which pIC50 did it give?
Answer: 5.94

Question: How did the pIC50 turn out when `CC(C)(O)c1cc(C(=O)NCC2(O)CCCCC2)c(Cl)c2cc[nH]c12` [Example 89, 4-Chloro-7-(1-hydroxy-1-methyl-ethyl)-1H-indole-5-carboxylic acid (1-hydroxy-cyclohexylmethyl)-amide] was run?
Answer: 8.08

Question: How did the pIC50 turn out when `COCCCc1cc(C(=O)NCC2(O)CCCCCC2)c(Cl)c2cc[nH]c12` [Example 53, 4-Chloro-7-(3-methoxy-propyl)-1H-indole-5-carboxylic acid (1-hydroxy-cycloheptylmethyl)-amide] was run?
Answer: 8.36

Question: How did the pIC50 turn out when `O=C(NCC1(O)CCC(F)(F)CC1)c1cc(O)c2[nH]ccc2c1Cl` [Example 80, 4-Chloro-7-hydroxy-1H-indole-5-carboxylic acid (4,4-difluoro-1-hydroxy-cyclohexylmethyl)-amide] was run?
Answer: 7.00

Question: With `O=C(NCC1(O)CCCCCC1)c1ccc2[nH]cc(F)c2c1Cl` [Example 26, 4-Chloro-3-fluoro-1H-indole-5-carboxylic acid (1-hydroxy-cycloheptylmethyl)-amide] as the compound, how does the pIC50 read?
Answer: 7.94

Question: `O=C(NCC1(O)CCC(F)(F)CC1)c1ccc2[nH]ccc2c1Cl` [Example 4, 4-Chloro-1H-indole-5-carboxylic acid (4,4-difluoro-1-hydroxy-cyclohexylmethyl)-amide] was tested. Which pIC50 did it give?
Answer: 7.38

Question: `CCc1cc(C(=O)NCC2(O)CCCCC2)c(Cl)c2cc[nH]c12` [Example 72, 4-Chloro-7-ethyl-1H-indole-5-carboxylic acid (1-hydroxy-cyclohexylmethyl)-amide] was tested. Which pIC50 did it give?
Answer: 8.39

Question: How did the pIC50 turn out when `Cc1c(C(=O)NCC2(O)CCC(F)(F)CC2)cc(Cl)c2[nH]ccc12` [Example 75, 7-Chloro-4-methyl-1H-indole-5-carboxylic acid (4,4-difluoro-1-hydroxy-cyclohexylmethyl)-amide] was run?
Answer: 8.02

Question: `Cn1ccc2c(Cl)c(C(=O)N[C@H](CO)C3CCCCC3)ccc21` [Example 7, 4-Chloro-1-methyl-1H-indole-5-carboxylic acid ((S)-1-cyclohexyl-2-hydroxy-ethyl)-amide] was tested. Which pIC50 did it give?
Answer: 7.30

Question: How did the pIC50 turn out when `Cc1c(C(=O)NCC2(O)CCCCC2)cc(C)c2[nH]ccc12` [Example 71, 4,7-Dimethyl-1H-indole-5-carboxylic acid (1-hydroxy-cyclohexylmethyl)-amide] was run?
Answer: 7.92

Question: How did the pIC50 turn out when `Cc1ncc(C2(CNC(=O)c3cc(C)c4[nH]ccc4c3Cl)CCC(F)(F)CC2)cn1` [Example 61, 4-Chloro-7-methyl-1H-indole-5-carboxylic acid [4,4-difluoro-1-(2-methyl-pyrimidin-5-yl)-cyclohexylmethyl]-amide] was run?
Answer: 8.40

Question: With `CSc1c[nH]c2c(I)cc(C(=O)NCC3(O)CCCCC3)c(Cl)c12` [Example 23, 4-Chloro-7-iodo-3-methylsulfanyl-1H-indole-5-carboxylic acid (1-hydroxy-cyclohexylmethyl)-amide] as the compound, how does the pIC50 read?
Answer: 5.94

Question: `CCOCCc1cc(C(=O)NCC2(O)CCC(F)(F)CC2)c(Cl)c2cc[nH]c12` [Example 94, 4-Chloro-7-(2-ethoxy-ethyl)-1H-indole-5-carboxylic acid (4,4-difluoro-1-hydroxy-cyclohexylmethyl)-amide] was tested. Which pIC50 did it give?
Answer: 8.03

Question: With `Cc1cc2c(Cl)c(C(=O)NCC3(O)CCCCC3)ccc2[nH]1` [Example 22, 4-Chloro-2-methyl-1H-indole-5-carboxylic acid (1-hydroxy-cyclohexylmethyl)-amide] as the compound, how does the pIC50 read?
Answer: 5.93

Question: With `O=C(NCC1(NS(=O)(=O)CCO)CCCCC1)c1ccc2[nH]ccc2c1Cl` [Example 56, 4-Chloro-1H-indole-5-carboxylic acid [1-(2-hydroxy-ethanesulfonylamino)-cyclohexylmethyl]-amide] as the compound, how does the pIC50 read?
Answer: 8.05

Question: How did the pIC50 turn out when `O=C(NCC1(c2ccc(C(F)(F)F)cc2)CCCCC1)c1ccc2[nH]ccc2c1Cl` [Example 16, 4-Chloro-1H-indole-5-carboxylic acid [1-(4-trifluoromethyl-phenyl)-cyclohexylmethyl]-amide] was run?
Answer: 6.35

Question: How did the pIC50 turn out when `N#CC1(CNC(=O)c2ccc3[nH]ccc3c2Cl)CCCCC1` [Example 36, 4-Chloro-1H-indole-5-carboxylic acid (1-cyano-cyclohexylmethyl)-amide] was run?
Answer: 7.57
